The text below walks through data of ChEMBL document CHEMBL4888484, “Replenishing the malaria drug discovery pipeline: Screening and hit evaluation of the MMV Hit Generation Library 1 (HGL1) against asexual blood stage Plasmodium falciparum ,using a nano luciferase reporter read-out” (2022).

Hit rate of the full screen: of about 150,000 compounds, about 540 (0.36%) showed an effect of 50% or more. Some of the results follow.

In this test the test system is Plasmodium falciparum. Nature of the test: Primary screen in NF54 nanoGlo assay, in single point, at 2uM, 72h; a lower Z score goes with more inhibition. It counts as functional, Erythrocyte. The conditions noted are these: timepoint 72 hour.
For `COc1ncccc1NC(=O)COc1cn(C)c(C)cc1=O`, the “% Inhibition” value is on record as -2% and the Z score is 0.31.
In the case of `c1cc(CCn2ccc(NCc3ccc4c(c3)CCO4)n2)ccn1`, the “% Inhibition” value is on record as -6% and the Z score is listed as 1.04.
Take `CCN(C(=O)Cc1ccc2c(c1)CCCO2)c1cccnc1C`: the “% Inhibition” value is on record as 6% and the Z score is -0.75.
Turning to `COc1ccc([C@H](C)Nc2cnn(C)c2)cc1Cn1cccn1`, the “% Inhibition” value was -11% and the Z score was determined as 1.1.
Taken in the same sequence, the figures for `CCCS(=O)(=O)Nc1cc(-c2ccsc2)n[nH]1` were 5% and -0.51.
For the compound `COc1ccc(-c2c(C)n[nH]c2NC(=O)[C@@H]2COc3ccccc3O2)cc1OC`, the “% Inhibition” value is recorded as -12% and the Z score came to 2.1.
Turning to `COc1ccc(-c2cc3n(n2)CCC(=O)N3Cc2ccc(C(=O)NCCN(C)C)cc2)cc1`, the “% Inhibition” value is 10% and the Z score is -1.14.
For the compound `CC(C)[C@H](NC(=O)Nc1ccc(Cl)cc1)C(=O)N1CCCCC1`, the “% Inhibition” value amounted to 3% and the Z score is listed as -0.37.
Taken in the same sequence, the figures for `COc1ccc(C(=O)N[C@H]2CC(=O)N(Cc3cccc4ccccc34)C2)cc1O` were -14% and 1.3.
Taken in the same sequence, the figures for `Fc1ccc([C@@H]2C[C@H](c3cccs3)n3nnnc3N2)cc1` were -15% and 1.95.
The like results for `O=C1CCCC[C@@H](C(=O)Nc2ccccc2N2CCc3ccccc32)N1` were, in that order, -2% and 0.3.
For `Cc1cc2cccc(NC(=O)N3CCCO[C@@H](CN4CCOCC4)C3)c2o1`, the “% Inhibition” value is -2% and the Z score came to 0.25.
For `Cc1n[nH]c(C)c1-c1cccc(C(=O)N2CCC3(CC2)N=C(N)NC3=O)c1`, the “% Inhibition” value was 3% and the Z score is on record as -0.43.
For the compound `CCOc1cc(N2CCOCC2)c(OCC)cc1NC(=O)c1ccc(-n2cnnn2)cc1`, the “% Inhibition” value was -8% and the Z score is recorded as 1.18.
With `Cc1ccc(-c2c(N3CCCC3)cn[nH]c2=O)cc1C`, the “% Inhibition” value is on record as 7% and the Z score was -1.01.
The like results for `CCN(C1CC(C)(C)C1)S(=O)(=O)C1CC1` were, in that order, -3% and 0.28.
The like results for `Cc1ccc(NS(C)(=O)=O)cc1NC(=O)NCC(F)(F)F` were, in that order, -15% and 2.2.
The like results for `COC1CN(C(=O)C(C#N)Cc2ccc(C#N)cc2)CCC1C` (stereo not given) were, in that order, -10% and 1.42.
Regarding `O=C(C[C@H]1C(=O)Nc2ccccc2N1C(=O)c1ccco1)Nc1cccc(Cl)c1`, the “% Inhibition” value came out at 0% and the Z score is -0.06.
Take `CCC(O)(CC)CNC(=O)NCc1nc(C)c(C)s1`: the “% Inhibition” value is listed as -7% and the Z score is 0.83.
The like results for `O=C(CCn1cncn1)N1CCC[C@@]2(CCC(=O)N(Cc3cccnc3)C2)C1` were, in that order, 5% and -1.05.
The like results for `FC(F)(F)c1nnc(N2CC[C@H]3CCCC[C@H]32)s1` were, in that order, -15% and 1.89.
Taken in the same sequence, the figures for `Cn1nc(C2CCCO2)cc1NC(=O)NC(CC1CCCO1)C(F)(F)F` (stereo not given) were -2% and 0.33.
In the case of `C=C(C)CN(C)C(=O)[C@@H]1CCN(C(=O)OC(C)(C)C)C1`, the “% Inhibition” value was -17% and the Z score is on record as 2.27.
The like results for `OCC1(CNC(c2cc(F)c(F)c(F)c2)c2cc(F)c(F)c(F)c2)COC1` were, in that order, -3% and 0.56.
Taken in the same sequence, the figures for `O=c1[nH]c2ccc(F)cc2c(=O)n1C1CCN(S(=O)(=O)c2ccc3c(c2)CCO3)CC1` were -7% and 1.24.
With `CCn1nccc1C(=O)N1CCC2(CCC(=O)N(Cc3cnc(C)cn3)C2)CC1`, the “% Inhibition” value is on record as -6% and the Z score is reported as 1.09.
For the compound `O=S(=O)(c1ccccc1)c1cnc2c(Br)c(-c3ccccc3)nn2c1-c1ccc(Cl)cc1`, the “% Inhibition” value turned out to be 1% and the Z score is listed as -0.09.
Turning to `Cc1cnccc1NCCn1cc(-c2ccc3c(c2)OCCO3)nn1`, the “% Inhibition” value is reported as -14% and the Z score is 2.42.
The like results for `COc1cc(Cl)cc2c1OC=CC(C(=O)Nc1ccc(C)cc1)=C2` were, in that order, 39% and -5.19.
The like results for `CC(C(N)=O)N1CC(c2ccccc2)OC(c2ccc(F)cc2)C1` (stereo not given) were, in that order, -13% and 1.98.
On to `Cc1ccc(-c2nc(C)cc(OCC(=O)N3CCC[C@H](C)C3)n2)cc1`, for which the “% Inhibition” value is -9% and the Z score is recorded as 1.46.
For the compound `O=C(COC1CCCCC1)Nc1nnc[nH]1`, the “% Inhibition” value is recorded as 3% and the Z score is -0.48.
Consider `COc1cccc(OC)c1-c1nc2c([nH]1)C[C@H](c1ccccc1)CNC2=O`, for which the “% Inhibition” value was -9% and the Z score was determined as 1.69.
The like results for `C=CCc1c(OC)ccc2[nH]cc(S(=O)(=O)c3ccc(C)cc3)c12` were, in that order, -4% and 0.44.
On to `c1ccc(-c2n[nH]c([C@@H]3CCCN3c3ncnc4[nH]ccc34)n2)cc1`, for which the “% Inhibition” value is given as -11% and the Z score came out at 1.35.
Taken in the same sequence, the figures for `Cc1nn(-c2ccccc2)c2c1nc(CCC(=O)NCCN1CCCCC1)c(=O)n2C` were 4% and -0.64.
In the case of `Cc1n[nH]c(C)c1[C@H](C)N(C)Cc1ccc2c(c1)CCO2`, the “% Inhibition” value was -9% and the Z score came to 1.23.
The like results for `CCn1cc(-c2nc(C)nn2Cc2ccc3c(c2)OCO3)cn1` were, in that order, -12% and 1.8.
The like results for `C=CCCC(=O)NCc1ccc(-c2ccco2)o1` were, in that order, -1% and 0.19.
With `COc1ccc(CCNC(=O)c2ccc(NC(=O)C3CC3C)cc2)cc1` (stereo not given), the “% Inhibition” value was -5% and the Z score was found to be 0.94.
Taken in the same sequence, the figures for `CCOC(=O)c1c(C)nc(Nc2nc3ccccc3s2)nc1C` were -2% and 0.46.
Regarding `C[C@@]1(c2noc(C3CC3)n2)CCCCN1C(=O)CC1CCCCC1`, the “% Inhibition” value is listed as -5% and the Z score amounted to 0.64.
As to `Cc1ccc(N2C[C@H](Cc3ccccc3)N(C(=O)c3cccn3C)CC2=O)cc1`, the “% Inhibition” value is -1% and the Z score stood at 0.12.
`CCCC1CC1NC(=O)Nc1cnns1` (stereo not given): the “% Inhibition” value turned out to be 29% and the Z score is reported as -3.25.
In the case of `C[C@H]1c2ccsc2CCN1c1ncnc2c1cnn2CCC#N`, the “% Inhibition” value is on record as -2% and the Z score worked out at 0.35.
As for `CNC(=O)N1CCC(n2c(C)nc(C(=O)NCc3ccc(OC)cc3)c2C)CC1`, the “% Inhibition” value is recorded as -10% and the Z score came to 1.69.
`CC(C)NS(=O)(=O)N1CCN(C(=O)c2csc3ccccc23)CC1`: the “% Inhibition” value is listed as -4% and the Z score is reported as 0.65.
For `Cc1ccc(C(=O)NC[C@@H](O)Cc2ccc(F)cc2F)c(=O)[nH]1`, the “% Inhibition” value is given as -8% and the Z score came to 0.97.
As to `COc1cc2c(cc1OC)CN(C(=O)C1(N)Cc3ccccc3C1)CC2`, the “% Inhibition” value is given as -16% and the Z score came to 2.11.
The like results for `Cc1cc(C)cc(CNCc2ccc(CN3CCC(O)CC3)cc2)c1` were, in that order, 19% and -2.72.
With `OCC1(CNc2ccnc3ccsc23)CCOCC1`, the “% Inhibition” value was -4% and the Z score amounted to 0.38.
Take `O=C(NCc1ccccc1)c1cc(NS(=O)(=O)c2ccccc2F)ccc1N1CCNCC1`: the “% Inhibition” value was -19% and the Z score is on record as 2.25.
The like results for `CCN(c1ccccc1)S(=O)(=O)c1ccc(-c2[nH]ncc2C(=O)N2CCCCC2)o1` were, in that order, -16% and 1.9.
Taken in the same sequence, the figures for `CN1CCN(C[C@@H](O)CN2C(=O)c3ccccc3C2=O)CC1` were -7% and 0.67.
Turning to `CC[C@H](Oc1ccc(F)cc1)C(=O)Nc1ccc(-n2cnnn2)cc1`, the “% Inhibition” value is listed as -1% and the Z score was found to be 0.09.
The like results for `O=C(c1ccc(C(F)F)c(F)c1)N1CCC[C@H]1c1nnn[nH]1` were, in that order, -1% and 0.17.
For the compound `Cn1cc(NC(=O)CCc2ccccn2)cc(Br)c1=O`, the “% Inhibition” value is listed as -10% and the Z score worked out at 1.66.
Consider `OC[C@H]1CCCN1Cc1ccc(Br)o1`, for which the “% Inhibition” value is -7% and the Z score came out at 1.14.
Taken in the same sequence, the figures for `O=C([C@@H]1CCC(=O)N1S(=O)(=O)c1ccccc1)N1CCN(Cc2ccc3c(c2)OCO3)CC1` were -7% and 1.04.
Taken in the same sequence, the figures for `Cc1cnn(CCCNC2CCN(c3nnc(-c4ccccc4)s3)CC2)c1` were -12% and 1.49.
The like results for `O[C@@H](CCc1ccccc1)C1CCN(Cc2ccncc2Cl)CC1` were, in that order, -4% and 0.71.
Take `O=C(Nc1cnn(CC(=O)N2CCOCC2)c1)NC1CC2CC2C1` (stereo not given): the “% Inhibition” value is listed as 1% and the Z score is -0.2.
Taken in the same sequence, the figures for `CCCCn1nc(CC(C)C)nc1[C@H](C)n1ccnc1C` were 2% and -0.31.
Consider `CN(C)c1ccc(C(=O)N(C2CCCC2)C2CC2)cn1`, for which the “% Inhibition” value came to 1% and the Z score is -0.11.
The like results for `CC(C)(C)CN1CCC(Oc2cc(Cl)ccc2C(=O)N2CCCCC2)CC1` were, in that order, -1% and 0.21.
Taken in the same sequence, the figures for `Cc1nc(C(=O)Oc2ccc(F)cc2)cs1` were -2% and 0.25.
Taken in the same sequence, the figures for `Cn1cnnc1CNC[C@H](O)c1ccc(Cl)cc1` were -8% and 1.54.
Turning to `CC1COC(NC(=O)c2ccccc2)C(NC(=O)c2ccccc2)O1` (stereo not given), the “% Inhibition” value worked out at 6% and the Z score was -1.21.
Taken in the same sequence, the figures for `CC(C)C[C@@H](NC(=O)c1cccc(-c2ncc[nH]2)c1)C(N)=O` were 10% and -1.36.
With `CCN(C(=O)CN1CCCCCC1)C1CC1`, the “% Inhibition” value is listed as -17% and the Z score came to 3.21.
In the case of `Cc1cc(C)n(CC(=O)N2CCC(CCn3c(C)cnc3C)CC2)n1`, the “% Inhibition” value is recorded as -11% and the Z score was 1.43.
Turning to `O=C(NCc1ccncc1)N[C@@H](C1CCCC1)C(F)(F)F`, the “% Inhibition” value is -9% and the Z score is 0.87.
With `OC1(c2ccc3c(c2)CN(Cc2ccsc2)CCO3)CCN(c2ccccc2F)CC1`, the “% Inhibition” value is 12% and the Z score is -1.53.
`CCN1C=NS(=O)(=O)c2ccc(C)cc21`: the “% Inhibition” value is reported as -9% and the Z score came out at 1.02.
Take `C[C@H]1CS(=O)(=O)CCN1Cc1nnc(-c2ccc(F)cc2)o1`: the “% Inhibition” value was determined as 4% and the Z score is recorded as -0.62.
For the compound `O=C(CCCc1ccccc1)N1CCN(Cc2ccn[nH]2)CC1`, the “% Inhibition” value is -3% and the Z score worked out at 0.52.
Taken in the same sequence, the figures for `CC(C)(O)CN(Cc1ccccc1)C(=O)NC1CC2CCC1O2` (stereo not given) were 5% and -0.53.
Taken in the same sequence, the figures for `COc1ccccc1-c1nc2c(cnn2Cc2cccc(F)c2)[nH]1` were -13% and 1.92.
With `CN(C)c1nsc(NC(c2ccc3c(c2)CCO3)[C@H]2C[C@@H](O)C2)n1` (stereo not given in full), the “% Inhibition” value was -18% and the Z score came out at 1.86.
`Cc1[nH]n(-c2nc3c(c(=O)[nH]2)CCCC3)c(=O)c1CCO`: the “% Inhibition” value is on record as -6% and the Z score is 0.91.
Taken in the same sequence, the figures for `CCN(CC)C(N)=NCc1cc(Cl)c2c(c1)OCCCO2` were -4% and 0.39.
For `OCCCN(Cc1ccccc1Cl)c1cc([C@H]2CCOC2)ncn1`, the “% Inhibition” value was 5% and the Z score is -0.95.
As for `C[C@H](NC(=O)C1CCN(S(C)(=O)=O)CC1)c1ccccn1`, the “% Inhibition” value was 4% and the Z score was -0.76.
On to `C[C@H]1C(=O)N(c2cccc3ccccc23)CCN1Cc1ccccc1`, for which the “% Inhibition” value is recorded as -20% and the Z score is on record as 1.96.
